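Dose response: 5 concentrations. Exposure: 48 h. Format: 96-well plates. Endpoint: linear interpolation; highest concentration if not reached. GI50 marks 50% less growth.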 The source made the active and inactive calls. Cut-off read from the data, not from the text of the source: active = GI50 up to about 1.1 µM and inactive = higher.
Each compound was assayed on NCI-H322M (assay: NCI anticancer screen, dose series, 48 h).
In the case of `CCCn1c2ccccc2c2ccc3c(c21)C(=O)C=CC3=O`, the GI50 is reported as inactive: > 10 µM.
In the case of `CSc1nc(NC2OCC(O)C(O)C2O)c(N)c(=O)n1C` (configuration not stated), the GI50 is reported as inactive: > 100 µM.
With `O=C1C[C@H]2CCCN2[C@@H](c2ccccc2)C1` the GI50 was inactive: > 100 µM.
For `COc1ccc2cc(NC(=O)Nn3cnnc3)ccc2c1`, the GI50 was inactive: > 100 µM.
In the case of `CC1=C(C(=O)Nc2ccccc2C)C(c2ccc(Cl)c(Cl)c2)C(C(=O)Nc2ccccc2C)=C(C)N1`, the GI50 is reported as inactive: 43 µM.
For `CNC(=O)OCc1nc(SC)n(C)c1COC(=O)NC`, the GI50 was inactive: 216 µM.
For `ON=C1CCCCC(=NO)CCCC1`, the GI50 was inactive: > 100 µM.
In the case of `CCCCN(CCCC)C(=O)C(=O)C(C#N)c1ccc(C)cc1` (configuration not stated), the GI50 is reported as inactive: > 100 µM.
With `COc1ccc2[nH]c3c([N+](=O)[O-])ccc(Cl)c3c(=O)c2c1` the GI50 was inactive: 33.8 µM.
In the case of `CC1=C(C(=O)Nc2ccccc2C)C(c2ccccc2C)C(C(=O)Nc2ccccc2C)=C(C)N1`, the GI50 is reported as inactive: 29.9 µM.
For `COc1cc(-c2cc(-c3ccccc3)nc(-c3c(OC)ccc4c(C)cc(=O)oc34)c2)cc(OC)c1OC`, the GI50 was inactive: > 100 µM.
`CC(=O)OCC12C(=O)C[C@@H](C)C3(CC(c4ccoc4)OC3=O)C1CCC(OC(C)=O)C21CO1` (some centres not stated) was tested, and the GI50 was inactive: > 100 µM.
With `CCOC(=O)C1C/C(C)=C(/C)SCCCS1` (configuration not stated) the GI50 was inactive: > 100 µM.
`CC(C)(CN1CCCCC1)C(=O)/C=C/c1ccc(Br)cc1` was tested, and the GI50 was inactive: 3.48 µM.
For `C=C1C(=O)O[C@@H]2C[C@@H](C)[C@@H]3C=CC(=O)[C@@]3(C)[C@@H](OC(=O)CCCC(=O)O[C@H]3[C@@H]4C(=C)C(=O)O[C@@H]4C[C@@H](C)[C@@H]4C=CC(=O)[C@]43C)[C@H]12`, the GI50 was active: 0.991 µM.
In the case of `CC(=O)NC1=C(OS(=O)(=O)c2ccc(C)cc2)CN(C)C1=O`, the GI50 is reported as inactive: 15.6 µM.
`S=c1sc2c(S)nc(S)nc2n1-c1ccccc1` was tested, and the GI50 was inactive: > 100 µM.
In the case of `Cc1occc1C(=S)Nc1ccc(Cl)c(C(=O)OC(C)C2CC2)c1` (configuration not stated), the GI50 is reported as inactive: 31.7 µM.
With `O=C1Nc2ccccc2C1=Nc1ccc(S(=O)(=O)Nc2nccs2)cc1` the GI50 was inactive: > 100 µM.
For `CC1(CCCO)CCCCCCCCCC(C)(CCCO)C1=O` (configuration not stated), the GI50 was inactive: > 100 µM.
`CCOc1ccc(/C=C\c2cc(OC)c(OC)c(OC)c2)cc1` was tested, and the GI50 was active: 0.0542 µM.
In the case of `COc1ccc2c(c1)C=C(C(C)(C)C)NS2(=O)=O`, the GI50 is reported as inactive: > 100 µM.
In the case of `COc1cc(/C=C/c2ccc(OC)c(OC)c2)cc(OC)c1` [(E)-3,4,3',5'-TETRAMETHOXYSTILBENE], the GI50 is reported as inactive: 37.4 µM.
`Cc1ccccc1NC(=O)/C=N/O` was tested, and the GI50 was inactive: > 100 µM.
With `COc1ccc(C2C(=O)c3c(OC)cc(OC)cc3OC2c2cccnc2)cc1` (configuration not stated) the GI50 was inactive: > 100 µM.
`Cn1c(=O)n2n(c1=O)C(S(=O)(=O)c1ccccc1)C2` (configuration not stated) was tested, and the GI50 was inactive: > 100 µM.
In the case of `CCCCCCCCCCCCCCCC(=O)Nc1ccn(C2CCC(COP(=O)(O)OCC3OC(n4cc(F)c(=O)[nH]c4=O)CC3OC(C)=O)O2)c(=O)n1` (configuration not stated), the GI50 is reported as inactive: 18.5 µM.
`C/C(=N\NC(=S)N1CCCCCC1)c1cccc2cccnc12` was tested, and the GI50 was active: 0.818 µM.
With `O=C(O)C(SC(=S)c1ccc(C(=S)SC(C(=O)O)c2ccccc2)cc1)c1ccccc1` (configuration not stated) the GI50 was inactive: > 100 µM.
`CC(C)=CC(=O)Cc1nc2ccc([N+](=O)[O-])cc2[nH]c1=O` was tested, and the GI50 was inactive: > 100 µM.
For `O=C1c2ccccc2C(=O)c2c(O)c(NCCNCCO)cc(O)c21`, the GI50 was inactive: 3.27 µM.
In the case of `CCN(CC)C(=S)N/N=C/c1ccccn1`, the GI50 is reported as active: < 0.01 µM.
With `O=[N+]([O-])c1ccc(/N=N\c2c(O)c(S(=O)(=O)O)cc3cc(S(=O)(=O)O)ccc23)cc1` the GI50 was inactive: > 100 µM.
In the case of `O=C(NCCCCCCNC(=O)c1cccc2ccccc12)Nc1cccc2ccccc12`, the GI50 is reported as inactive: > 100 µM.
`Cc1ccc(C)n1-c1ccccc1C1C=CN(C(=O)OC(C)(C)C)C=C1` was tested, and the GI50 was inactive: 30.3 µM.
In the case of `O=C(C(Cl)=C(N1CCOCC1)N1CCOCC1)C(Cl)Cl`, the GI50 is reported as inactive: > 100 µM.
For `O=C1O[C@H]2[C@H](O)[C@@H](OC(=O)c3cc(O)c(O)c4c3[C@@H]3C1=CC(=O)C(O)(O)C3(O)O4)[C@H](OC(=O)c1cc(O)c(O)c(O)c1)O[C@@H]2CO` (some centres not stated) [FUROSIN], the GI50 was inactive: 72.6 µM.
`C=CCOC(=O)c1c(C)[n+]([O-])c2cc(Cl)c(Cl)cc2[n+]1[O-]` was tested, and the GI50 was inactive: 33.8 µM.
`COc1ccc(NC2=CC(=O)C(=O)c3ccccc32)nn1` was tested, and the GI50 was inactive: 3.81 µM.
In the case of `O=C(COc1ccc(OCC(=O)NNC2=NC(c3cc(F)c(Cl)cc3Cl)CS2)c(Cl)c1)NNC1=NC(c2cc(F)c(Cl)cc2Cl)CS1` (configuration not stated), the GI50 is reported as inactive: > 100 µM.
For `O=[N+]([O-])c1ccc(-c2nn3c(C45CC6CC(CC(C6)C4)C5)nnc3s2)c(Cl)c1`, the GI50 was inactive: > 100 µM.
`O=C(O)CN(CC(=O)O)Cc1cc2c(cc1O)Oc1cc(O)c(CN(CC(=O)O)CC(=O)O)cc1C21OC(=O)c2ccccc21` [OFTASCEINE] was tested, and the GI50 was inactive: > 100 µM.
`Cc1cn(C2CC(n3cncn3)C(C(C)O)O2)c(=O)[nH]c1=O` (configuration not stated) was tested, and the GI50 was inactive: > 100 µM.
`CS/C(=N\c1ccccc1)N(c1ccccc1)c1nc(=[N+](C)C)ss1.[O-][Cl+3]([O-])([O-])[O-]` was tested, and the GI50 was inactive: 14.4 µM.
With `CC(=O)O[C@H]1CC[C@@]2(C)[C@H](CC[C@@H]3[C@@H]2CC[C@]2(C)[C@@H](c4ccc(=O)oc4)C[C@H]4O[C@]342)C1` the GI50 was active: 0.509 µM.
In the case of `COc1cc(/C=C2\CC3C4CC[C@H]5C[C@@H](O)CC[C@]5(C)C4CC[C@]3(C)\C2=N\O)cc(OC)c1OC` (some centres not stated), the GI50 is reported as inactive: 27 µM.
With `CP(=O)(O)C(N)c1ccccc1` (configuration not stated) the GI50 was inactive: > 100 µM.
With `COc1ccc(C[C@H]2COC(=O)[C@@H]2Cc2ccc(Br)cc2)cc1OC` the GI50 was inactive: 62.8 µM.
For `CCOc1ccc(NC(=O)C(=O)CC(=O)C2=C(C)Nc3ccccc3S2)cc1`, the GI50 was inactive: > 50 µM.
`CC(=O)N1NC(c2ccccc2)=CC(=O)/C1=C/C(=O)c1ccccc1` was tested, and the GI50 was inactive: 80.2 µM.
With `CCOC(=N)CC(=O)NC(C)c1ccccc1` (configuration not stated) the GI50 was inactive: > 100 µM.
With `COC(=O)C(Cc1nc2ccccc2nc1O)C(NO)C(=O)Nc1c(Cl)cc([N+](=O)[O-])cc1Cl` (configuration not stated) the GI50 was inactive: 46.2 µM.
In the case of `NS(=O)(=O)c1cc2c(cc1Cl)NC(C(=O)c1cc(=O)c3ccc(O)cc3o1)=NS2(=O)=O`, the GI50 is reported as inactive: > 100 µM.
In the case of `Cc1cc(O)c2c(c1)C(=O)c1c(c(O)cc(O)c1-c1c(O)cc(O)c3c1C(=O)c1cc(C)cc(O)c1C3=O)C2=O` [SKYRIN], the GI50 is reported as inactive: 22.6 µM.
With `Nc1nc(Cl)cc(NCC2(CO)CC(=O)C2)n1` the GI50 was inactive: > 100 µM.
In the case of `O=C(CN(c1ccccc1)c1ccccc1)N1c2ccccc2C2C=CC=CC21` (configuration not stated), the GI50 is reported as inactive: 27 µM.
For `CC(C)(C)OC(=O)NC(CS(=O)(=O)O)C(=O)O` (configuration not stated), the GI50 was inactive: > 100 µM.
`CN1C(c2ccccc2)CC(=NOCc2ccccc2)CC1c1ccccc1` (configuration not stated) was tested, and the GI50 was inactive: 20.3 µM.
In the case of `O=c1oc2c(O)c(O)c(O)c3c(=O)oc4c(O)c(O)cc1c4c23` [FLAVELLAGIC ACID], the GI50 is reported as inactive: > 100 µM.
With `COc1cc([C@@H]2c3cc4c(cc3[C@@H](NCCNCCO)[C@H]3COC(=O)[C@H]23)OCO4)cc(OC)c1O` the GI50 was inactive: 5.21 µM.
For `C[S+](C)CCOC(=O)C(=[N+]=[N-])c1ccc([N+](=O)[O-])cc1`, the GI50 was inactive: > 100 µM.
With `O=C1CCc2c3c(c4c([nH]c5ccccc54)c2CC1)C(=O)NC3=O` the GI50 was inactive: 14.8 µM.

Reference: ChEMBL document CHEMBL1201862, “PubChem BioAssay data set” (2004)
